Test results published in article PMC10726135.
This is one part of the list. At the low end of the ranking, values are background and their order means little. Measured with an extract: partners may take part in the binding.

Target: T1, HNF4alpha8 (COS-7 nuclear extract) (UniProt P41235-5)
T1 sequence: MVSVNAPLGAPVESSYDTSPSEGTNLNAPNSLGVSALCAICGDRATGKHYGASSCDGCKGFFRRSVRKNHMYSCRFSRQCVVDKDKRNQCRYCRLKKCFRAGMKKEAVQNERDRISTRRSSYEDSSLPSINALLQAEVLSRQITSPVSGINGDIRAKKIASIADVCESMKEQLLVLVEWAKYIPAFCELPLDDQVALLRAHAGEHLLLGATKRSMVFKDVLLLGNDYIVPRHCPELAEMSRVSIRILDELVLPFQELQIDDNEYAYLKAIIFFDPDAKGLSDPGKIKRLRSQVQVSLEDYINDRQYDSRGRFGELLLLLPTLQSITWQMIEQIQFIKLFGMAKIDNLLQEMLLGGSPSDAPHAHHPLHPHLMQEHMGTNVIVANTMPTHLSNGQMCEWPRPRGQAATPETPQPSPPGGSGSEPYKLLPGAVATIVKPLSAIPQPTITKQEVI
Experiment: protein-binding microarray
Conditions: COS-7 nuclear extract on double-stranded Agilent 4x180k PBM; binding buffer, salt, pH and temperature not given; high values mean tight binding; double strand, one strand shown; sequences stand for … in …GCCTAGGGAGATTAGAGTATCGGTCGA

Sequence | binding signal (log2 normalized intensity)
CCTTCACTCTGGGGCAATAACCCTAGACAC | -0.247
GTTCTCCTTTCTGCCCTTTGAAGCATGTGA | 3.43
GGCAGTGACTGGACCACGATCAGCCAGCAG | -1.39
CCGTGGCTGGAACTCCTCCGGTCAAGATCA | 0.0377
TAGAACCCAGGCACAGGTCCTACTCACACT | -1.18
GACTCTTGGACTCCCTGAAGAAACAGTCTT | 0.338
TCAGGGGTCAATGTGCACATTCGAAGTTTT | 4.86
CACGTGCAAAGTACAAAGTACAGAGATGGC | 3.78
GACCTTGTTTTCAATGACTACCTGTTACCC | 1.81
GGAGTTTGTACTTTATCCTACAAGGGAGAT | 2.77
GGCTGCAGAGGTTTCGCAAGGACGTGACCT | 3.33
CTGGTCAGAAGAAACATGCGATACTTGACC | 2.33
TTCAGAGGACTGCCCAGCTGCATCCTGTGC | -0.891
ACAACTTTTCCTCTAACCACTTTGAAATAG | 0.27
GACGTACGCTCCCAGTATGAGCGGCGCTGA | -1.32
AGTCCAAAATCAGTCTCAGTGGGCTAAACA | -1.2
TCTGGTGGCACACAGAGGACGTCAGGCAGA | -1.24
CTTACTCTCTCCCTCCTCCTTTTTTTCCCC | 2.82
AGAATTGGTCCTGGAACTCAAAGGTCAAAT | 5.75
GAGCAGGAACCTTGTGGTGGTGAAAGTCAA | 0.274

Sequence | binding signal (log2 normalized intensity)
GGAGAGGATGGGGACAAAGGTCAAGAAAGC | 6.33
TCCAGGAATGGAAACCCCTGTAAGTCCAAA | 2.82
AAATCCAAAGGTCAACAGCCAGCCTCAAAG | 4.08
CTGACTAGAGTGGAGTGAAGTAAGAGTAGC | -1.33
CCTTTGGCAATATCTCCCAGCTGGAGTCTT | -0.263
GTCAAAACCACCTATTCTGAAGATTGCTAG | -1.43
CAGTGGGAGACAGGCATTAACCCTTTAGTG | 0.965
GGACTGCAGGGGGCCAAGGGATACCCTGAG | -1.25
ATATTTACTTATGGTTTGACCCTGCGATAA | 3.75
AGAACCAAAGTCCTAGAGTCCCTATTTGCT | -1.27
CACTGGGGTCATGGAGCTGGAGGGCAAAGG | 4.08
GTGTAAACAAGTGAGCATGGCTGTGTTCCA | 0.23
TTGTTCAATAAGCAATACATTGAACTTTGA | 8.23
TCTGTGTAGAAATTGTGGCTTGTGTAGTTA | 1.14
AGCAATTCAAATTCTTTGCCATGACCTTTG | 6.24
TATTCCCAGGTTCCAAAGGTCACCCGTATT | 7.3
GTGAACTGGAGCAAAGGTCACTCTTGCTAT | 5.01
GGGAATGTCACAGGGGCCATGCAGGGCAGG | -1.31
TACTTTGCTTCCAAGTTATGCAGACCTTTG | 2.66
ATCCCAAAGCTTTTTGATTGCTTATAGCTT | -1.26
